From the supplement of paper PMC3722116
Growth of fresh clinical P. falciparum isolates by hypoxanthine uptake over 42 h; for most isolates 1.6-1,647 nM mefloquine, 0.044-87 nM artesunate, 10-10,256 nM chloroquine, 2.4-236 nM lumefantrine. EC50, lower = more sensitive; slope from the same fit, higher = steeper. No active / inactive call. Fits with a coefficient of variation above 100% are not listed here; 15-28% of fits exceed 15%. Isolates are numbered anew.

Experiments:
mefloquine [1] = compound: T1, OC(c1cc(C(F)(F)F)nc2c(C(F)(F)F)cccc12)C1CCCCN1 [mefloquine]; test: slope of the dose-response curve (dimensionless); higher = steeper concentration-effect curve
Protocol: (§1)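 Hypoxanthine uptake by fresh isolates, duplicate serial dilutions, 24 h of drug plus 18 h after the label; sigmoid fit per isolate.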

chloroquine [2] = compound: T2, CCN(CC)CCCC(C)Nc1ccnc2cc(Cl)ccc12 [chloroquine]; test: as above
Protocol: as §1

lumefantrine [3] = compound: T3, CCCCN(CCCC)CC(O)c1cc(Cl)cc2c1-c1ccc(Cl)cc1/C2=C/c1ccc(Cl)cc1 [lumefantrine]; test: as above
Protocol: as §1

artesunate [4] = compound: T4, C[C@H]1[C@H](OC(=O)CCC(=O)O)O[C@@H]2O[C@@]3(C)CC[C@H]4[C@H](C)CC[C@@H]1[C@@]24OO3 [artesunate]; test: as above
Protocol: as §1

mefloquine [5] = compound: T1, mefloquine
Protocol: as §1

chloroquine [6] = compound: T2, chloroquine
Protocol: as §1

lumefantrine [7] = compound: T3, lumefantrine
Protocol: as §1

artesunate [8] = compound: T4, artesunate
Protocol: as §1

Plasmodium falciparum isolate 59 (pfmdr1 allele: 86N, 1042N, pfmdr1 copies: 1)
slope (mefloquine [1]): 3.22 | slope (chloroquine [2]): 3.55 | slope (lumefantrine [3]): 2.07 | slope (artesunate [4]): 4.52 | EC50 of parasite growth (mefloquine [5]): 0.0295 µg/mL | EC50 of parasite growth (chloroquine [6]): 0.154 µg/mL | EC50 of parasite growth (lumefantrine [7]): 0.0136 µg/mL | EC50 of parasite growth (artesunate [8]): 0.000766 µg/mL

Plasmodium falciparum isolate 412 (pfmdr1 allele: 86N, 1042N, pfmdr1 copies: 2)
slope (mefloquine [1]): 3.49 | slope (chloroquine [2]): 3.42 | slope (lumefantrine [3]): 2.44 | slope (artesunate [4]): 5.73 | EC50 of parasite growth (mefloquine [5]): 0.0915 µg/mL | EC50 of parasite growth (chloroquine [6]): 0.104 µg/mL | EC50 of parasite growth (lumefantrine [7]): 0.0588 µg/mL | EC50 of parasite growth (artesunate [8]): 0.000838 µg/mL

Plasmodium falciparum isolate 45 (pfmdr1 allele: 86N, 1042N, pfmdr1 copies: 1)
slope (mefloquine [1]): 2.26 | slope (chloroquine [2]): 2.76 | slope (lumefantrine [3]): 2.91 | slope (artesunate [4]): 5.74 | EC50 of parasite growth (mefloquine [5]): 0.0425 µg/mL | EC50 of parasite growth (chloroquine [6]): 0.0744 µg/mL | EC50 of parasite growth (lumefantrine [7]): 0.0489 µg/mL | EC50 of parasite growth (artesunate [8]): 0.00139 µg/mL

Plasmodium falciparum isolate 254 (pfmdr1 allele: 86N, 1042N, pfmdr1 copies: 2)
slope (mefloquine [1]): 3.71 | slope (chloroquine [2]): 2.59 | slope (lumefantrine [3]): 3.14 | slope (artesunate [4]): 10 | EC50 of parasite growth (mefloquine [5]): 0.103 µg/mL | EC50 of parasite growth (chloroquine [6]): 0.133 µg/mL | EC50 of parasite growth (lumefantrine [7]): 0.0701 µg/mL | EC50 of parasite growth (artesunate [8]): 0.000809 µg/mL

Plasmodium falciparum isolate 176 (pfmdr1 allele: 86N, 1042N, pfmdr1 copies: 1)
slope (mefloquine [1]): 5 | slope (chloroquine [2]): 4.68 | slope (lumefantrine [3]): 2.97 | slope (artesunate [4]): 6.65 | EC50 of parasite growth (mefloquine [5]): 0.0549 µg/mL | EC50 of parasite growth (chloroquine [6]): 0.135 µg/mL | EC50 of parasite growth (lumefantrine [7]): 0.0187 µg/mL | EC50 of parasite growth (artesunate [8]): 0.00134 µg/mL

Plasmodium falciparum isolate 398 (pfmdr1 allele: 86N, 1042N, pfmdr1 copies: 1)
slope (mefloquine [1]): 3.97 | slope (chloroquine [2]): 4.11 | slope (lumefantrine [3]): 2.46 | slope (artesunate [4]): 9.99 | EC50 of parasite growth (mefloquine [5]): 0.0457 µg/mL | EC50 of parasite growth (chloroquine [6]): 0.0907 µg/mL | EC50 of parasite growth (lumefantrine [7]): 0.0391 µg/mL | EC50 of parasite growth (artesunate [8]): 0.000948 µg/mL

Plasmodium falciparum isolate 414 (pfmdr1 allele: 86N, 1042N, pfmdr1 copies: 1)
slope (mefloquine [1]): 2.18 | slope (chloroquine [2]): 5.64 | slope (lumefantrine [3]): 1.9 | slope (artesunate [4]): 4.9 | EC50 of parasite growth (mefloquine [5]): 0.0338 µg/mL | EC50 of parasite growth (chloroquine [6]): 0.34 µg/mL | EC50 of parasite growth (lumefantrine [7]): 0.0359 µg/mL | EC50 of parasite growth (artesunate [8]): 0.000827 µg/mL

Plasmodium falciparum isolate 106 (pfmdr1 allele: 86Y, pfmdr1 copies: 1)
slope (mefloquine [1]): 2.73 | slope (chloroquine [2]): 12.4 | slope (lumefantrine [3]): 2.34 | slope (artesunate [4]): 10 | EC50 of parasite growth (mefloquine [5]): 0.00483 µg/mL | EC50 of parasite growth (chloroquine [6]): 0.173 µg/mL | EC50 of parasite growth (lumefantrine [7]): 0.0145 µg/mL | EC50 of parasite growth (artesunate [8]): 0.000482 µg/mL

Plasmodium falciparum isolate 27 (pfmdr1 allele: 86N, 1042N, pfmdr1 copies: 2)
slope (mefloquine [1]): 4.92 | slope (chloroquine [2]): 0.872 | slope (lumefantrine [3]): 3.92 | slope (artesunate [4]): 3.78 | EC50 of parasite growth (mefloquine [5]): 0.0723 µg/mL | EC50 of parasite growth (chloroquine [6]): 0.29 µg/mL | EC50 of parasite growth (lumefantrine [7]): 0.0652 µg/mL | EC50 of parasite growth (artesunate [8]): 0.00103 µg/mL
